According to PubChem BioAssay AID624296 (National Center for Advancing Translational Sciences (NCATS), 2012):
The campaign covered roughly 350,000 compounds. About 9,900 (2.8%) were called active. Inconclusive results, whose numbers are uncertain, are shown with a selection of clear calls. The call rests on the fitted dose curve; in most records, active means well fitted activation curve with a large enough effect; inconclusive means small, poorly fitted or top-dose-only effect; inactive means no such curve, though single readings can be large or run the other way. Potencies of inconclusive entries are left out as doubtful fits.

Assay: A quantitative high throughput screen for small molecules that induce DNA re-replication in MCF 10a normal breast cells. Further: nearly all actives have a fitted effect of over 50% in size.
Conditions: MCF 10A DNA re-replication, Hoechst nuclear intensity, 48 h; series mostly up to 46.1 µM
Potency means the concentration at half of the fitted maximal effect; tags describe the fitted curve by direction and shape.

| Structure (SMILES) | Potency |
| --- | --- |
| Nc1c(C(=O)NCc2ccco2)c2nc3ccccc3nc2n1CCc1ccccc1F | active: 2.59 µM |
| Cc1cc2oc(=O)cc(CN3CCCCC3C)c2cc1C(C)C (centres undefined) | inconclusive [activator, single point] |
| CC(C)(O)[C@@H]1CC[C@@](C)(C2CC[C@]3(C)C2[C@H](O)CC2[C@@]4(C)CC[C@H](O)C(C)(C)C4[C@@H](O[C@H]4O[C@@H](CO)[C@H](O)[C@@H](O)[C@@H]4O[C@@H]4O[C@H](CO)[C@@H](O)[C@H](O)[C@H]4O)C[C@]23C)O1 (stereo in doubt) | inactive |
| CN(CC(=O)Nc1ccccc1Cl)C(=O)COC(=O)c1ccc(Cl)nc1 | inactive |
| CCN(CC)c1ccc(NC(=O)c2cc(OC)cc(OC)c2)c(C)c1 | active: 2.06 µM |
| N#Cc1cccc(NC(=O)CNc2cccc(S(=O)(=O)N3CCCCC3)c2)c1 | inactive |
| N/C(=C\C(=O)c1cc(Cl)ccc1O)C(Cl)(Cl)Cl | active: 11.6 µM |
| COc1ccc(CNCCC(c2ccccc2)C2CCOC(C)(C)C2)cc1 (centres undefined) | inactive |
| COc1ccc(-c2noc(CCC(=O)N3CCN(c4cccc(OC)c4)CC3)n2)cc1 | inconclusive [activator, full curve, poor fit] |
| CC(C)(C)c1ccc(OCC(=O)N(c2ccccn2)C2CCCCC2)cc1 | inactive |
| Cc1ccc(C)c(/C(O)=C2\C(=O)C(=O)N(Cc3cccnc3)C2c2cccnc2)c1 (centres undefined) | inconclusive [activator, single point] |
| O=C(Nc1nc2ccccc2s1)c1ccc(OCC2CCCO2)cc1 (centres undefined) | inactive |
| Nc1ncnc(Nc2ccccn2)c1[N+](=O)[O-] | inconclusive [activator, single point] |
| CS(=O)(=O)c1ccc2nc(NC(=O)c3cc4ccccc4o3)sc2c1 | inconclusive [activator, partial curve, poor fit] |
| COCCn1c(SCC(=O)NC(=O)NCc2ccccc2)nc2ccccc2c1=O | inconclusive [activator, partial curve, poor fit] |
| O=C(c1cc(COc2ccc(F)c(F)c2)on1)N1CCN(C/C=C/c2ccccc2)CC1 | inconclusive [activator, single point] |
| COc1ccc(CNC(=O)C(C)N2CCN(S(=O)(=O)c3ccccc3F)CC2)cc1 (centres undefined) | inactive |
| CCc1ccccc1NC(=O)C(CC)Sc1nc2cc3c(cc2c(=O)n1Cc1ccco1)OCO3 (centres undefined) | active: 6.51 µM |
| CCOc1ccccc1NC1=C(Cl)C(=O)N(Cc2ccccc2)C1=O | inconclusive [activator, single point] |
| COc1cccc(NC(=O)CN(C)C(=O)c2ccc(Cl)c(S(=O)(=O)N3CCCCCC3)c2)c1 | inconclusive [activator, single point] |
| Cc1cc(=O)c2n(Cc3ccccc3Cl)nc[n+]2[nH]1 | inconclusive [activator, partial curve, poor fit] |
| CC#CC[N+](C)(C)CC(=O)c1ccccc1 | inactive |

| Structure (SMILES) | Potency |
| --- | --- |
| CSc1ccccc1NC(=O)COC(=O)c1ccccc1Cc1ccccc1 | inconclusive [activator, single point] |
| CCCCCCCCCCCCCCCC[N+](C)(C)Cc1ccc(F)cc1 | active: 14.6 µM |
| CC(C)Cc1nnc(NS(=O)(=O)c2ccc([N+](=O)[O-])cc2)s1 | inconclusive [activator, partial curve, poor fit] |
| CC(NC(=O)c1cccc(S(=O)(=O)N2CCN(C)CC2)c1)c1ccc(Cl)cc1Cl (centres undefined) | inconclusive [activator, single point] |
| CCN(CC)c1ccc(N=C2C(=O)Nc3ccccc32)cc1 | inconclusive [activator, single point] |
| CC(=O)NC1(NC(C)=O)CCN(C)CC1 | inconclusive [activator, single point] |
| O=C(COc1ccccc1Cl)Nc1cccc(S(=O)(=O)NC2=NCCCCC2)c1 | inactive |
| N#C/C(=N\Nc1cc(Cl)cc(Cl)c1)c1nnc2n1CCCCC2 | inconclusive [activator, single point] |
| COc1cccc(-n2c(CN3CCN(c4ccccc4)CC3)nc3ccc([N+](=O)[O-])cc3c2=O)c1 | inactive |
| C=CCn1c(CCn2c3ccccc3c3ccccc32)n[nH]c1=S | inactive |
| CCN(C(=O)COC(=O)/C=C/c1ccc2c(c1)OCO2)c1c(N)n(Cc2ccccc2)c(=O)[nH]c1=O | inconclusive [activator, partial curve, poor fit] |
| Cc1cccc(NCC(=O)N/N=C/c2ccc(Br)cc2)c1 | inconclusive [activator, partial curve] |
| CN(C)c1cc(-c2ccc(Cl)c(Cl)c2)oc(=O)c1Cl | inconclusive [activator, full curve, poor fit] |
| CCOC(=O)C1=C(C)n2c(s/c(=C/c3cccc([N+](=O)[O-])c3)c2=O)=NC1c1ccc(O)c(OC)c1 (centres undefined) | active: 16.4 µM |
| Cc1ccc(N(Cc2ccccc2)C(=O)c2cc(S(=O)(=O)N3CCOCC3)ccc2C)cc1 | inactive |
| COc1ccc(/C=C/C(=O)Nc2cccc(F)c2)cc1S(=O)(=O)N1CCOCC1 | inconclusive [activator, single point] |
| CC1CCN(C(=O)COC(=O)c2n[nH]c3ccccc23)CC1 | inactive |
| O=C(CSc1nnc(COc2ccc(F)cc2)o1)N1c2ccccc2CCc2ccccc21 | inconclusive [activator, single point] |
| Cc1cc(C(=O)Nc2nnc(C3CCCCC3)s2)no1 | inactive |
| CN(c1ccccc1)S(=O)(=O)c1cccc(C(=O)N2CCN(c3ccccn3)CC2)c1 | inactive |
| CC(Oc1ccccc1Cl)C(=O)Nc1ccccc1C(=O)N1CCOCC1 (centres undefined) | inconclusive [activator, partial curve, poor fit] |
| O=C(NC1CCCC1)c1ccccc1OCc1ccccc1 | inconclusive [activator, full curve] |
